{"source": "the supplement of paper PMC8728848", "binders": {"B1": {"name": "DrGRIFIN (Danio rerio), Q6DGJ1 (protein)", "chain": "MTLRFEASCPDGLCPGWSVILKGETPPEASKFEINFLCDRDDRVAFHFNPRFTESDIICNSYMANRWGQEERCNHFPLGVEEPFQIEIYSDNDHFHVYIDKAKVMQYKHRVEDLKTITKLQVVNDVKISSLEITKKLFY"}}, "experiment_in_all_cases": "glycan array binding signal (z-score within array); higher = stronger binding", "conditions_in_all_cases": "glycan notation: IUPAC condensed, linker removed", "key": {"Gal6S(b1-4)Glc6S": {"biological_target": "Gal6S(b1-4)Glc6S", "procedure,_shortened": "(§1)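 Glycan array data came from 3228 arrays in the Consortium for Functional Glycomics database, and only arrays with an available protein sequence were kept. Glycan names were put into IUPAC-condensed notation, and columns mapping to the same glycan were averaged. The binding signal is a within-array Z-score, averaged across arrays of one protein sequence run at different concentrations or buffers and across linkers. A negative Z-score can be read as non-binding.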"}, "Gal6S(b1-4)GlcNAc": {"biological_target": "Gal6S(b1-4)GlcNAc", "procedure,_shortened": "as §1"}, "Gal6S(b1-4)GlcNAc6S": {"biological_target": "Gal6S(b1-4)GlcNAc6S", "procedure,_shortened": "as §1"}, "GalNAc(a1-3)Gal": {"biological_target": "GalNAc(a1-3)Gal", "procedure,_shortened": "as §1"}, "GalNAc(a1-3)GalNAc": {"biological_target": "GalNAc(a1-3)GalNAc", "procedure,_shortened": "as §1"}, "[1]": {"biological_target": "GalNAc(a1-3)GalNAc(b1-3)Gal(a1-4)Gal(b1-4)Glc", "procedure,_shortened": "as §1"}, "[2]": {"biological_target": "GalNAc(a1-3)GalNAc(b1-3)Gal(a1-4)Gal(b1-4)GlcNAc", "procedure,_shortened": "as §1"}, "GalNAc(b1-3)Gal": {"biological_target": "GalNAc(b1-3)Gal", "procedure,_shortened": "as §1"}, "[3]": {"biological_target": "GalNAc(b1-3)Gal(a1-4)Gal(b1-4)GlcNAc", "procedure,_shortened": "as §1"}, "[4]": {"biological_target": "GalNAc(b1-3)Gal(a1-4)Gal(b1-4)GlcNAc(b1-3)Gal(b1-4)Glc", "procedure,_shortened": "as §1"}, "[5]": {"biological_target": "GalNAc(b1-3)Gal(a1-6)Gal(b1-4)Glc", "procedure,_shortened": "as §1"}, "GalNAc(b1-3)GalNAc": {"biological_target": "GalNAc(b1-3)GalNAc", "procedure,_shortened": "as §1"}, "GalNAc(b1-3)GlcNAc": {"biological_target": "GalNAc(b1-3)GlcNAc", "procedure,_shortened": "as §1"}, "GalNAc(b1-4)Gal(b1-4)Glc": {"biological_target": "GalNAc(b1-4)Gal(b1-4)Glc", "procedure,_shortened": "as §1"}, "GalNAc(b1-4)GlcNAc": {"biological_target": "GalNAc(b1-4)GlcNAc", "procedure,_shortened": "as §1"}, "[6]": {"biological_target": "GalNAc(b1-4)GlcNAc(b1-2)Man", "procedure,_shortened": "as §1"}, "[7]": {"biological_target": "GalNAc(b1-4)GlcNAc(b1-2)Man(a1-3)[GalNAc(b1-4)GlcNAc(b1-2)Man(a1-6)]Man(b1-4)GlcNAc(b1-4)GlcNAc", "procedure,_shortened": "as §1"}, "[8]": {"biological_target": "GalNAc(b1-4)GlcNAc(b1-3)GalNAc(b1-4)GlcNAc", "procedure,_shortened": "as §1"}, "GalNAc(b1-4)GlcNAc6S": {"biological_target": "GalNAc(b1-4)GlcNAc6S", "procedure,_shortened": "as §1"}, "GalNAc(b1-6)GalNAc": {"biological_target": "GalNAc(b1-6)GalNAc", "procedure,_shortened": "as §1"}, "GalNAc3S(b1-4)GlcNAc": {"biological_target": "GalNAc3S(b1-4)GlcNAc", "procedure,_shortened": "as §1"}, "GalNAc3S(b1-4)GlcNAc3S": {"biological_target": "GalNAc3S(b1-4)GlcNAc3S", "procedure,_shortened": "as §1"}, "[9]": {"biological_target": "GalNAc3S(b1-4)[Fuc(a1-3)]GlcNAc", "procedure,_shortened": "as §1"}, "GalNAc4S6S(b1-4)GlcNAc": {"biological_target": "GalNAc4S6S(b1-4)GlcNAc", "procedure,_shortened": "as §1"}, "GalNAc6S(b1-4)GlcNAc": {"biological_target": "GalNAc6S(b1-4)GlcNAc", "procedure,_shortened": "as §1"}, "Glc(a1-4)Glc": {"biological_target": "Glc(a1-4)Glc", "procedure,_shortened": "as §1"}, "[10]": {"biological_target": "Glc(a1-4)Glc(a1-4)Glc(a1-4)Glc", "procedure,_shortened": "as §1"}, "Glc(a1-6)Glc(a1-6)Glc": {"biological_target": "Glc(a1-6)Glc(a1-6)Glc", "procedure,_shortened": "as §1"}, "[11]": {"biological_target": "Glc(a1-6)Glc(a1-6)Glc(a1-6)Glc", "procedure,_shortened": "as §1"}, "Glc(b1-4)Glc": {"biological_target": "Glc(b1-4)Glc", "procedure,_shortened": "as §1"}, "Glc(b1-6)Glc": {"biological_target": "Glc(b1-6)Glc", "procedure,_shortened": "as §1"}, "GlcA(b1-3)Gal": {"biological_target": "GlcA(b1-3)Gal", "procedure,_shortened": "as §1"}, "GlcA(b1-3)GlcNAc": {"biological_target": "GlcA(b1-3)GlcNAc", "procedure,_shortened": "as §1"}, "GlcA(b1-6)Gal": {"biological_target": "GlcA(b1-6)Gal", "procedure,_shortened": "as §1"}, "[12]": {"biological_target": "GlcA3S(b1-3)Gal(b1-4)GlcNAc(b1-2)Man", "procedure,_shortened": "as §1"}, "[13]": {"biological_target": "GlcA3S(b1-3)Gal(b1-4)GlcNAc(b1-3)Gal(b1-4)Glc", "procedure,_shortened": "as §1"}, "[14]": {"biological_target": "GlcNAc(a1-3)Gal(b1-4)GlcNAc", "procedure,_shortened": "as §1"}, "[15]": {"biological_target": "GlcNAc(a1-4)Gal(b1-3)GlcNAc", "procedure,_shortened": "as §1"}, "[16]": {"biological_target": "GlcNAc(a1-4)Gal(b1-4)GalNAc", "procedure,_shortened": "as §1"}, "[17]": {"biological_target": "GlcNAc(a1-4)Gal(b1-4)GlcNAc", "procedure,_shortened": "as §1"}, "[18]": {"biological_target": "GlcNAc(a1-4)Gal(b1-4)GlcNAc(b1-3)Gal(b1-4)Glc", "procedure,_shortened": "as §1"}, "[19]": {"biological_target": "GlcNAc(a1-4)Gal(b1-4)GlcNAc(b1-3)Gal(b1-4)GlcNAc", "procedure,_shortened": "as §1"}, "[20]": {"biological_target": "GlcNAc(a1-4)Gal(b1-4)GlcNAc(b1-3)Gal(b1-4)GlcNAc(b1-3)Gal(b1-4)GlcNAc", "procedure,_shortened": "as §1"}, "[21]": {"biological_target": "GlcNAc(a1-4)Gal(b1-4)GlcNAc(b1-3)Gal(b1-4)[Fuc(a1-3)]GlcNAc(b1-3)Gal(b1-4)[Fuc(a1-3)]GlcNAc", "procedure,_shortened": "as §1"}, "[22]": {"biological_target": "GlcNAc(a1-6)Gal(b1-4)GlcNAc", "procedure,_shortened": "as §1"}}, "note": "Some of the results follow.", "data": [{"binder": "B1", "values": [{"measurement": "glycan array binding signal (z-score)", "setting": "Gal6S(b1-4)Glc6S", "result": -0.192}, {"measurement": "glycan array binding signal (z-score)", "setting": "Gal6S(b1-4)GlcNAc", "result": -0.181}, {"measurement": "glycan array binding signal (z-score)", "setting": "Gal6S(b1-4)GlcNAc6S", "result": -0.178}, {"measurement": "glycan array binding signal (z-score)", "setting": "GalNAc(a1-3)Gal", "result": -0.153}, {"measurement": "glycan array binding signal (z-score)", "setting": "GalNAc(a1-3)GalNAc", "result": -0.177}, {"measurement": "glycan array binding signal (z-score)", "setting": "[1]", "result": -0.214}, {"measurement": "glycan array binding signal (z-score)", "setting": "[2]", "result": -0.182}, {"measurement": "glycan array binding signal (z-score)", "setting": "GalNAc(b1-3)Gal", "result": -0.026}, {"measurement": "glycan array binding signal (z-score)", "setting": "[3]", "result": -0.132}, {"measurement": "glycan array binding signal (z-score)", "setting": "[4]", "result": -0.12}, {"measurement": "glycan array binding signal (z-score)", "setting": "[5]", "result": -0.212}, {"measurement": "glycan array binding signal (z-score)", "setting": "GalNAc(b1-3)GalNAc", "result": -0.175}, {"measurement": "glycan array binding signal (z-score)", "setting": "GalNAc(b1-3)GlcNAc", "result": -0.192}, {"measurement": "glycan array binding signal (z-score)", "setting": "GalNAc(b1-4)Gal(b1-4)Glc", "result": -0.187}, {"measurement": "glycan array binding signal (z-score)", "setting": "GalNAc(b1-4)GlcNAc", "result": -0.123}, {"measurement": "glycan array binding signal (z-score)", "setting": "[6]", "result": -0.129}, {"measurement": "glycan array binding signal (z-score)", "setting": "[7]", "result": -0.157}, {"measurement": "glycan array binding signal (z-score)", "setting": "[8]", "result": -0.211}, {"measurement": "glycan array binding signal (z-score)", "setting": "GalNAc(b1-4)GlcNAc6S", "result": -0.108}, {"measurement": "glycan array binding signal (z-score)", "setting": "GalNAc(b1-6)GalNAc", "result": -0.185}, {"measurement": "glycan array binding signal (z-score)", "setting": "GalNAc3S(b1-4)GlcNAc", "result": -0.052}, {"measurement": "glycan array binding signal (z-score)", "setting": "GalNAc3S(b1-4)GlcNAc3S", "result": -0.176}, {"measurement": "glycan array binding signal (z-score)", "setting": "[9]", "result": -0.178}, {"measurement": "glycan array binding signal (z-score)", "setting": "GalNAc4S6S(b1-4)GlcNAc", "result": -0.143}, {"measurement": "glycan array binding signal (z-score)", "setting": "GalNAc6S(b1-4)GlcNAc", "result": -0.147}, {"measurement": "glycan array binding signal (z-score)", "setting": "Glc(a1-4)Glc", "result": -0.161}, {"measurement": "glycan array binding signal (z-score)", "setting": "[10]", "result": -0.2}, {"measurement": "glycan array binding signal (z-score)", "setting": "Glc(a1-6)Glc(a1-6)Glc", "result": -0.193}, {"measurement": "glycan array binding signal (z-score)", "setting": "[11]", "result": -0.138}, {"measurement": "glycan array binding signal (z-score)", "setting": "Glc(b1-4)Glc", "result": -0.192}, {"measurement": "glycan array binding signal (z-score)", "setting": "Glc(b1-6)Glc", "result": -0.125}, {"measurement": "glycan array binding signal (z-score)", "setting": "GlcA(b1-3)Gal", "result": -0.117}, {"measurement": "glycan array binding signal (z-score)", "setting": "GlcA(b1-3)GlcNAc", "result": -0.161}, {"measurement": "glycan array binding signal (z-score)", "setting": "GlcA(b1-6)Gal", "result": -0.117}, {"measurement": "glycan array binding signal (z-score)", "setting": "[12]", "result": -0.196}, {"measurement": "glycan array binding signal (z-score)", "setting": "[13]", "result": -0.174}, {"measurement": "glycan array binding signal (z-score)", "setting": "[14]", "result": -0.164}, {"measurement": "glycan array binding signal (z-score)", "setting": "[15]", "result": -0.112}, {"measurement": "glycan array binding signal (z-score)", "setting": "[16]", "result": -0.154}, {"measurement": "glycan array binding signal (z-score)", "setting": "[17]", "result": -0.183}, {"measurement": "glycan array binding signal (z-score)", "setting": "[18]", "result": -0.154}, {"measurement": "glycan array binding signal (z-score)", "setting": "[19]", "result": -0.19}, {"measurement": "glycan array binding signal (z-score)", "setting": "[20]", "result": -0.179}, {"measurement": "glycan array binding signal (z-score)", "setting": "[21]", "result": -0.116}, {"measurement": "glycan array binding signal (z-score)", "setting": "[22]", "result": -0.119}]}]}
